# The other results are listed elsewhere or left out. Single values of this set are uncertain.
# T1: AP2_Mu__Q96CW1_160_435
# T1 chain: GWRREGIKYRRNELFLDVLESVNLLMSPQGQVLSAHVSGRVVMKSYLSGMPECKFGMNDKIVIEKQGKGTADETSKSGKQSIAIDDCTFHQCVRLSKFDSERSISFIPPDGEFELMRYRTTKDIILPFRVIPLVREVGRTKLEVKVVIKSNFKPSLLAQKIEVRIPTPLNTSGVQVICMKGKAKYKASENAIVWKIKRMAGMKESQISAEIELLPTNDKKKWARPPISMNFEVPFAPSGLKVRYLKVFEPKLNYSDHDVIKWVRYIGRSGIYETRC
# T2: AURKA_Pkinase-merged__O14965_125_391
# T2 chain: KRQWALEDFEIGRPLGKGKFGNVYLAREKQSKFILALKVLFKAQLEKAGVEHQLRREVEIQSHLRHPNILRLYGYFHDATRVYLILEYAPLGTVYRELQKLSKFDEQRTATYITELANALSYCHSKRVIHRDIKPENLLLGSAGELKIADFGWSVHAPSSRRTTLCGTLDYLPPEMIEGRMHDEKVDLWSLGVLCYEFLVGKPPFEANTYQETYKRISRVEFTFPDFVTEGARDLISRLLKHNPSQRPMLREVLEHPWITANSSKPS
# T3: CSK21_Pkinase__P68400_1_335
# T3 chain: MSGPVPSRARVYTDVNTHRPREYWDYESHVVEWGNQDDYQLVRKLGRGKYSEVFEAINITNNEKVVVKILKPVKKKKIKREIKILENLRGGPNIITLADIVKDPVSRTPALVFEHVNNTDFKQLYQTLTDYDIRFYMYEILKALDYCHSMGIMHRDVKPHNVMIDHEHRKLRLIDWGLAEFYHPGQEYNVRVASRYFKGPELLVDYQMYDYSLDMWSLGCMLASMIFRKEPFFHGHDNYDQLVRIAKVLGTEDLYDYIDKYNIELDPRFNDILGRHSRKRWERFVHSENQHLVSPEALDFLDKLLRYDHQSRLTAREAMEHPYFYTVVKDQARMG
# T4: GGA1_VHS__Q9UJY5_1_157
# T4 chain: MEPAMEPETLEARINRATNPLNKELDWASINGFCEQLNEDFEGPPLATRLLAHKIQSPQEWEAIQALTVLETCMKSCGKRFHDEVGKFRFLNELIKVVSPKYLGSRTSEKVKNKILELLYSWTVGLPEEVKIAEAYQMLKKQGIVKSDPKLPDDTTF
# T5: GGA3_VHS__Q9NZ52_1_166
# T5 chain: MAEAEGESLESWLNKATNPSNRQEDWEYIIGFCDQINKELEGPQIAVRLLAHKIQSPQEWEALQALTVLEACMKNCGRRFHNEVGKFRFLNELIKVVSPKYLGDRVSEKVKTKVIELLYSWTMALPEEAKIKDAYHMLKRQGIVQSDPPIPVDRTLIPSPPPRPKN
# T6: PDZK1_PDZ_2_Q5T2W1_132_224
# T6 chain: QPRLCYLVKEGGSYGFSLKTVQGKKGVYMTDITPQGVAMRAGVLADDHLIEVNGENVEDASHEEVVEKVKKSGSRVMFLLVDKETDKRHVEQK
# T7: SHC_PH__P29353_149_317
# T7 chain: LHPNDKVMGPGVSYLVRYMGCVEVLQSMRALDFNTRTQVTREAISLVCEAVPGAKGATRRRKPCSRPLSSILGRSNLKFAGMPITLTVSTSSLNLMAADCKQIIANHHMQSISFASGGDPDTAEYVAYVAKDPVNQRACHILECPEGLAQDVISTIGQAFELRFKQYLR
# T8: EPS15_EH__P42566_121_215
# T8 chain: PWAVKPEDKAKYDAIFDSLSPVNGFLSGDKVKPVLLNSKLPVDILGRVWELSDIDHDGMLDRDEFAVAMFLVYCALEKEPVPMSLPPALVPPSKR
# T9: DOK1_PTB__Q99704_151_256
# T9 chain: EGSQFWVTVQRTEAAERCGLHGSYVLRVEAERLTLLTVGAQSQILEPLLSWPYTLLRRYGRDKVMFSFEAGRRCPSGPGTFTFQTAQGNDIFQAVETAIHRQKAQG
# T10: RDX_FERM_1_P35241_5_295
# T10 chain: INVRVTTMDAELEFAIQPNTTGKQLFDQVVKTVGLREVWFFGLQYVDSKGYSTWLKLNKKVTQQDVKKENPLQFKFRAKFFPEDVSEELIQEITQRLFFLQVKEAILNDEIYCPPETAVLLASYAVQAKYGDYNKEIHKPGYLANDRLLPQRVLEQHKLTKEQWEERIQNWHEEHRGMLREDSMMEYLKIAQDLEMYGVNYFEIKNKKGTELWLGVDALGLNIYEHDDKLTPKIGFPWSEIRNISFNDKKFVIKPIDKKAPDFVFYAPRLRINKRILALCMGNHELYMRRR
# Key:
# Experiment in all cases: mutation enrichment score (mutant vs wild-type peptide binding to bait); baits are purified protein domains named by gene / domain / UniProt id / residues; peptides come from disordered regions of human proteins; higher = mutation enhances binding relative to wild type
# [1] = molecular target: T1, AP2_Mu__Q96CW1_160_435; conditions: wild-type window: …
# [2] = molecular target: T2, AURKA_Pkinase-merged__O14965_125_391; conditions: number of wild-type / mutant comparisons summed (bounds the score): 6, wild-type window: …
# [3] = molecular target: T3, CSK21_Pkinase__P68400_1_335; conditions: paper call: no_effect, wild-type window: …
# [4] = molecular target: T4, GGA1_VHS__Q9UJY5_1_157; conditions: number of wild-type / mutant comparisons summed (bounds the score): 5; paper call: no_effect; wild-type window: …
# [5] = molecular target: T5, GGA3_VHS__Q9NZ52_1_166; conditions: number of wild-type / mutant comparisons summed (bounds the score): 6; paper call: no_effect; wild-type window: …
# [6] = molecular target: T6, PDZK1_PDZ_2_Q5T2W1_132_224; conditions: number of wild-type / mutant comparisons summed (bounds the score): 6; paper call: no_effect; wild-type window: …
# [7] = molecular target: T7, SHC_PH__P29353_149_317; conditions: number of wild-type / mutant comparisons summed (bounds the score): 6; paper call: no_effect; wild-type window: …
# [8] = molecular target: T8, EPS15_EH__P42566_121_215; conditions: paper call: no_effect, wild-type window: …
# [9] = molecular target: T9, DOK1_PTB__Q99704_151_256; conditions: number of wild-type / mutant comparisons summed (bounds the score): 5; paper call: no_effect; wild-type window: …
# [10] = molecular target: GABARAPL1_ATG8__Q9H0R8_2_115; conditions: number of wild-type / mutant comparisons summed (bounds the score): 24; paper call: enhanced; wild-type window: …
# [11] = molecular target: MAP1LC3A_ATG8__Q9H492_2_121; conditions: number of wild-type / mutant comparisons summed (bounds the score): 24; paper call: enhanced; wild-type window: …
# [12] = molecular target: MAP1LC3B_ATG8__Q9GZQ8_2_119; conditions: wild-type window: …
# [13] = molecular target: SNX27_PDZ__Q96L92_40_141; conditions: number of wild-type / mutant comparisons summed (bounds the score): 6; paper call: no_effect; wild-type window: …
# [14] = molecular target: EZR_FERM_1_P15311_2_295; conditions: number of wild-type / mutant comparisons summed (bounds the score): 10; paper call: no_effect; wild-type window: …
# [15] = molecular target: T10, RDX_FERM_1_P35241_5_295; conditions: number of wild-type / mutant comparisons summed (bounds the score): 12; paper call: no_effect; wild-type window: …
# [16] = number of wild-type / mutant comparisons summed (bounds the score): 12, paper call: no_effect
# [17] = number of wild-type / mutant comparisons summed (bounds the score): 12
# [18] = number of wild-type / mutant comparisons summed (bounds the score): 6, paper call: no_effect
# [19] = number of wild-type / mutant comparisons summed (bounds the score): 6
# EZR_FERM_1_P15311_2_295, sequence (chain, as listed by the source): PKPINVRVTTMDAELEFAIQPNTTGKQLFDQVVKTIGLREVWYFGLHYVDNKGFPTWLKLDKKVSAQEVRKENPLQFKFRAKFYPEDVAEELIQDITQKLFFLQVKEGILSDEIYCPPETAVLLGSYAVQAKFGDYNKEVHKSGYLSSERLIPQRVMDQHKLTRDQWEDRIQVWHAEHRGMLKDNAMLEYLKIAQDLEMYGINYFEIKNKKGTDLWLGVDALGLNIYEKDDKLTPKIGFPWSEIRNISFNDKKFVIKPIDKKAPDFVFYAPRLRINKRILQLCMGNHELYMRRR
binder,measurement,setting,value
IQFSVPAPPSQLDPRQVEMILRRRPTPAMLFRLSEHSSPEE [R29L R29L],mutation enrichment score,[1]; [16],-2
PSCGLPYYWNADTDLVSWLSSHDPNSVVTKSAKKLRSSNAD [P78S P78S],mutation enrichment score,[2]; paper call: no_effect,2.9
same,mutation enrichment score,[3]; [17],-0.21
same,mutation enrichment score,[4],-2
same,mutation enrichment score,[5],-2.1
same,mutation enrichment score,[6],-0.083
same,mutation enrichment score,[7],3.6
WSFLFSLILIVIMFLWRPSADNQRYAFMPLIDDSDDEIEEF [N456D N456D],mutation enrichment score,[1]; [18],-1.3
RKKNIAAERKEAKQEKEEADGYQRLKDEVVRAQVQLQLFKL [R208G R208G],mutation enrichment score,[1]; [18],5.6
HFCLGRGLIDLALSQAVTDVNARFGEEHSANPFHWDLIGKN [Y1858N Y1858N],mutation enrichment score,[1]; [18],-5
same,mutation enrichment score,[8]; [17],0.2
GRARWGLAYTLLHNPTLQVFLKTALLGANGAQP [R655L R655L],mutation enrichment score,[1]; [18],0
LQEKDIQMWKVSLQKEQARYSQLQEQRDTMVTKLHSQIRQL [N762S N762S],mutation enrichment score,[1]; [18],2
ALSQAVTDVYARFGEEHSANLFHWDLIGKNLFAMVVEGVVY [P1869L P1869L],mutation enrichment score,[1]; [18],3.5
same,mutation enrichment score,[8]; [19],-4
VPQRVEVTRHEVSAEEEWSYLEEEEGVSISVYREEEREEEE [S10425L S10425L],mutation enrichment score,[1]; [18],4
same,mutation enrichment score,[9],4
same,mutation enrichment score,[10],15
same,mutation enrichment score,[11],9
same,mutation enrichment score,"[12]; number of wild-type / mutant comparisons summed (bounds the score): 18, paper call: enhanced",11
DEVNEGELKEIKQDISSLRYKLLEEKSQNTEDLAELIRELG [E897K E897K],mutation enrichment score,"[1]; number of wild-type / mutant comparisons summed (bounds the score): 12, paper call: diminished",-6.6
GSLPHSDDAGDYEQLFSSTQEEISEPSQITSEPEEQSGAVR [G992E G992E],mutation enrichment score,[1]; [18],-4
same,mutation enrichment score,[12]; [16],-0.76
AVSSIQKAKGYQLLEEEKIVFHYFPLTEVGMVETSPLPAKP [S276F S276F],mutation enrichment score,[1]; [16],-0.17
same,mutation enrichment score,[3]; [19],2
FGLPRLPEEWSQWLGGSSWPDYVRPLPPAAIESPAVAAPAY [G53D G53D],mutation enrichment score,[1]; [18],1.4
same,mutation enrichment score,[2]; paper call: no_effect,5.5
same,mutation enrichment score,[3]; [19],2
LALSQAVTDVYARFGEEHSAIPFHWDLIGKNLFAMVVEGVV [N1868I N1868I],mutation enrichment score,"[1]; number of wild-type / mutant comparisons summed (bounds the score): 12, paper call: enhanced",9
same,mutation enrichment score,[8]; [19],-4
VIVVWNTYVKINDLEHSVHHCTINKEIKETEFKGIPISYLE [W787C W787C],mutation enrichment score,[1]; [18],5
same,mutation enrichment score,[13],-1.8
DWYPHSRLFDQAFGLPRLPEKWSQWLGGSSWPGYVRPLPPA [E41K E41K],mutation enrichment score,[1]; [18],-2
same,mutation enrichment score,[2]; paper call: diminished,-6
NYCTSGAYSNASSTDSASYYLLTGDTRLELELRPTGEIEQY [P994L P994L],mutation enrichment score,[1]; [18],3.5
same,mutation enrichment score,[14],2
same,mutation enrichment score,[15],5
DQLKLQEKDIQMWKVSLQKEKARYNQLQEQRDTMVTKLHSQ [Q758K Q758K],mutation enrichment score,[1]; [18],2.9
KILLDVKTRLEQEIATYRRLPEGEDAHLTQYKKEPVTTRQV [L388P L388P],mutation enrichment score,[1]; [18],1
